This passage reports AUC and IC50 results from the supplement of paper PMC4967469.

The IC50 is the midpoint of a concentration-inhibition curve.

By IC50 is meant the dose at which the fit gives 50% viability; a fit beyond the top or the lowest dose is shown as a bound at that dose. For AUC the same curve is integrated over the 256-fold range of doses and scaled to a fraction: 1 means no effect, lower means more sensitive. A top dose marked as inferred was derived from the fitted curves, not read from the paper. Where only a bound is given, the exact number is not on record here.

Common to all, as to assay: Viability of human cancer cell lines after 72 h of drug (GDSC screen)
Compound in one test: C=CC(=O)Nc1cc(NC(=O)c2ccc(C)c(NC(=O)c3ccno3)c2)cc(C(F)(F)F)c1 [QL-XI-92]
The note with it: top dose 10.24 µM; top dose inferred. The protocol: (§1)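 Human cancer cell lines in 384-well plates, medium with 10% serum, drug for 72 h over a 256-fold dose range (nine 2-fold or five 4-fold steps up to the top dose). Adherent lines were fixed and stained with the nucleic acid dye Syto60, suspension lines read with resazurin; signal relative to control wells, capped at 0 and 100%. One two-parameter sigmoid per drug and line, fitted in a mixed model over all curves with the slope shared within a line.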

Compound in the next test: COc1cc2nccc(Oc3ccc(NC(=O)C4(C(=O)Nc5ccc(F)cc5)CC4)cc3)c2cc1OC [XL-184]
The settings on record: top dose 5.12 µM; top dose inferred. The protocol:
as §1

Compound in a further test: CNCc1ccc(-c2[nH]c3cc(F)cc4c3c2CCNC4=O)cc1 [AG-014699]
The note with it: top dose 5 µM; top dose inferred. As to the method:
as §1

Compound in a further test: O=c1cc(CN2CCOCC2)occ1OCCCCCSc1ccnc2cc(C(F)(F)F)ccc12 [EHT 1864]
The settings on record: top dose 10 µM; top dose inferred. The protocol: as §1

Compound in the next test: COc1cc2ncnc(Nc3cc(Br)c(O)c(Br)c3)c2cc1OC [WHI-P97]
The note with it: top dose 10.24 µM; top dose inferred. The protocol: as §1

Compound in the next test: N=C(N)NC(=N)NCCc1ccccc1 [Phenformin]
The note with it: top dose 4000 µM; top dose inferred. The protocol:
as §1

Compound in the next test: CCC1=C[C@@H]2CN(C1)Cc1c([nH]c3ccccc13)[C@@](C(=O)OC)(c1cc3c(cc1OC)N(C)[C@H]1[C@@](O)(C(=O)OC)[C@H](OC(C)=O)[C@]4(CC)C=CCN5CC[C@]31[C@@H]54)C2 [Vinorelbine]
The note with it: top dose 0.064 µM; top dose inferred. As to the method:
as §1

“NCI-H1915 (large cell lung carcinoma, adherent)”: the AUC was found to be 0.965 in the test with QL-XI-92; 0.986 in the test with XL-184; 0.926 with AG-014699; 0.966 in the test with EHT 1864; 0.982 in the test with WHI-P97; 0.83 with Phenformin. Also, the IC50 with QL-XI-92 is more than 10.2 µM; in the test with XL-184 it was more than 5.12 µM; with AG-014699, more than 5 µM; with EHT 1864, more than 10 µM; in the test with WHI-P97, more than 10.2 µM; in the test with Phenformin, 2570 µM.
With “NCI-H2122 (lung adenocarcinoma, adherent)”, the AUC worked out at 0.987 in the test with QL-XI-92; 0.988 with XL-184; 0.989 with AG-014699; 0.984 with EHT 1864; 0.981 with WHI-P97; 0.87 in the test with Phenformin. For the same cell line, the IC50 with QL-XI-92 was more than 10.2 µM; with XL-184, more than 5.12 µM; in the test with AG-014699 it was more than 5 µM; with EHT 1864, more than 10 µM; with WHI-P97 it was more than 10.2 µM; in the test with Phenformin, 3340 µM.
For “NCI-H2228 (lung adenocarcinoma, adherent)”, the AUC with QL-XI-92 was 0.931; with XL-184 it was 0.91; with WHI-P97, 0.903; with Vinorelbine, 0.564; in the test with Phenformin, 0.694. Also, the IC50 with QL-XI-92 was more than 10.2 µM; with XL-184 it was more than 5.12 µM; with WHI-P97, more than 10.2 µM; with Vinorelbine, 0.00652 µM; in the test with Phenformin it was 1170 µM.
Take SNU-175 (large intestine, suspension): the AUC stood at 0.98 in the test with QL-XI-92, 0.899 with XL-184, 0.942 with WHI-P97 and 0.773 with Phenformin. The IC50 in the test with QL-XI-92 is more than 10.2 µM; with XL-184, more than 5.12 µM; in the test with WHI-P97 it was more than 10.2 µM; with Phenformin, 1460 µM.
In the case of SNU-398 (liver, adherent), the AUC in the test with QL-XI-92 is 0.935; with XL-184, 0.964; in the test with EHT 1864, 0.955; with WHI-P97, 0.963; with Vinorelbine it was 0.389; in the test with Phenformin it was 0.927. In addition, the IC50 is more than 10.2 µM with QL-XI-92; more than 5.12 µM with XL-184; more than 10 µM in the test with EHT 1864; more than 10.2 µM in the test with WHI-P97; 0.00195 µM with Vinorelbine; more than 4000 µM with Phenformin.
For SNU-475 (liver, adherent), the AUC in the test with QL-XI-92 is 0.972; with XL-184, 0.898; with WHI-P97 it was 0.99; with Vinorelbine it was 0.924; in the test with Phenformin, 0.99. Also, the IC50 with QL-XI-92 is more than 10.2 µM; with XL-184 it was more than 5.12 µM; with WHI-P97, more than 10.2 µM; in the test with Vinorelbine it was more than 0.064 µM; with Phenformin, more than 4000 µM.
Take SNU-1040 (large intestine, adherent): the AUC with QL-XI-92 was determined as 0.917; in the test with XL-184, 0.9; with WHI-P97 it was 0.809; with Phenformin it was 0.951. Also, the IC50 with QL-XI-92 was more than 10.2 µM; with XL-184 it was more than 5.12 µM; with WHI-P97, 7.71 µM; in the test with Phenformin, more than 4000 µM.
In the case of SW1116 (large intestine, adherent), the AUC was 0.985 with QL-XI-92; 0.982 with XL-184; 0.983 with AG-014699; 0.981 in the test with EHT 1864; 0.982 with WHI-P97; 0.986 with Phenformin. For the same cell line, the IC50 in the test with QL-XI-92 was more than 10.2 µM; in the test with XL-184, more than 5.12 µM; in the test with AG-014699, more than 5 µM; with EHT 1864 it was more than 10 µM; with WHI-P97 it was more than 10.2 µM; with Phenformin, more than 4000 µM.
As for U251 (glioma, adherent), the AUC with QL-XI-92 was 0.852; with XL-184 it was 0.842; with EHT 1864, 0.926; in the test with WHI-P97 it was 0.986; with Vinorelbine, 0.605; in the test with Phenformin it was 0.58. The concentration for half-maximal inhibition (IC50) with QL-XI-92 was 7.34 µM; in the test with XL-184, 3.34 µM; with EHT 1864, more than 10 µM; with WHI-P97 it was more than 10.2 µM; with Vinorelbine it was 0.00767 µM; with Phenformin it was 409 µM.
Consider U-2-OS (osteosarcoma, adherent), for which the AUC with QL-XI-92 is 0.976; with XL-184, 0.983; in the test with AG-014699 it was 0.915; in the test with EHT 1864, 0.94; with WHI-P97, 0.984; in the test with Vinorelbine, 0.985. Further, the IC50 in the test with QL-XI-92 is more than 10.2 µM; in the test with XL-184, more than 5.12 µM; in the test with AG-014699 it was more than 5 µM; in the test with EHT 1864, more than 10 µM; in the test with WHI-P97 it was more than 10.2 µM; with Vinorelbine, more than 0.064 µM.
As to UACC-812 (breast, adherent), the AUC with QL-XI-92 was found to be 0.99; in the test with XL-184, 0.954; with WHI-P97, 0.938; with Vinorelbine, 0.99; in the test with Phenformin, 0.918. Moreover, the IC50 was more than 10.2 µM with QL-XI-92; more than 5.12 µM with XL-184; more than 10.2 µM with WHI-P97; more than 0.064 µM with Vinorelbine; more than 4000 µM with Phenformin.
As to YMB-1-E (breast, adherent), the AUC with QL-XI-92 was 0.961; in the test with XL-184, 0.969; in the test with WHI-P97, 0.977; with Phenformin, 0.808. In addition, the IC50 was more than 10.2 µM with QL-XI-92, more than 5.12 µM in the test with XL-184, more than 10.2 µM in the test with WHI-P97 and 3080 µM in the test with Phenformin.
